The supplement of paper PMC3334620
Whole data set: some 33,000 sequences, median “E-score (-0.5 to 0.5)” near -0.016, cut for the highest 2% near 0.31. The list shows a part of the results.

Each sequence was assayed against Cst6 (UniProt P40535) (assay: PBM E-score (8-mer binding enrichment) (E-score (-0.5 to 0.5)); higher = stronger / more preferred TF binding; most listed sequences are background and not binding sites). Conditions: protein concentration: 200 nM; construct: GST-DNA-binding domain.
Experimental: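 Universal 'all 10-mer' protein binding microarrays (Agilent AMADID 015681) probed with GST-tagged S. cerevisiae TFs (full-length or DBD) made by in vitro transcription/translation (PURExpress), about 100-200 nM. Bound TF was detected with fluorescent anti-GST. Each ungapped 8-mer (which stands for itself and its reverse complement) is scored by the PBM enrichment score (E-score), a modified Wilcoxon-Mann-Whitney statistic from -0.5 to +0.5, computed with the Universal PBM Analysis Suite. Scale: above 0.35 generally sequence-specific binding.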
For AGCTGGAC, the “PBM E-score” value was -0.194. For AAAACTAC, the “PBM E-score” value was 0.146. ATGGCTCA was tested, and the “PBM E-score” value was -0.0125. With AATGTCCT the “PBM E-score” value was -0.118. AGGTACTC was tested, and the “PBM E-score” value was -0.181. ACCTGCGG was tested, and the “PBM E-score” value was -0.17. With CGCATGCC the “PBM E-score” value was 0.0832. For CACGATCA, the “PBM E-score” value was 0.242. For AGCTGAAA, the “PBM E-score” value was -0.0174. AGGACTCA was tested, and the “PBM E-score” value was -0.176. For AACCTGAC, the “PBM E-score” value was 0.128. With AGACCTCA the “PBM E-score” value was 0.022. In the case of CCCAACGA, the “PBM E-score” value is reported as -0.0437. With ACCTTAGT the “PBM E-score” value was -0.00291. With GACGACTC the “PBM E-score” value was -0.145. For TAAGCAGA, the “PBM E-score” value was -0.0885. In the case of CCAACGCA, the “PBM E-score” value is reported as 0.0742. AGTCGGCG was tested, and the “PBM E-score” value was -0.0479. With GAAGTTTA the “PBM E-score” value was 0.0898. ACTCGTGC was tested, and the “PBM E-score” value was -0.103. In the case of GAGGGATC, the “PBM E-score” value is reported as -0.28. In the case of CTCGCAGC, the “PBM E-score” value is reported as -0.132. CGACATAA was tested, and the “PBM E-score” value was 0.0706. With ACCGATGG the “PBM E-score” value was -0.105. With AGCTATAC the “PBM E-score” value was 0.0184. GAAGTTGC was tested, and the “PBM E-score” value was -0.12. ACGTGTTG was tested, and the “PBM E-score” value was 0.223. In the case of CGTCCCAG, the “PBM E-score” value is reported as -0.116. In the case of GTAGGCCA, the “PBM E-score” value is reported as -0.112. In the case of AGATGCTC, the “PBM E-score” value is reported as -0.104. In the case of CAGTGGCG, the “PBM E-score” value is reported as -0.0803. With AGGAAGAC the “PBM E-score” value was -0.232. ACACGATG was tested, and the “PBM E-score” value was 0.128. For GGTATAAC, the “PBM E-score” value was 0.0592. ACGCCTCA was tested, and the “PBM E-score” value was 0.091. With ATCGGCGC the “PBM E-score” value was 0.141. With GCATTAAC the “PBM E-score” value was 0.131. In the case of AAATAAGG, the “PBM E-score” value is reported as 0.183. AGCTCCAC was tested, and the “PBM E-score” value was -0.301. In the case of TAGCGACA, the “PBM E-score” value is reported as -0.0291. For CACCAGAG, the “PBM E-score” value was -0.163. In the case of AGTTTTAG, the “PBM E-score” value is reported as 0.0464. For GTTACTTA, the “PBM E-score” value was 0.198. With GCGCCCGA the “PBM E-score” value was -0.123. In the case of AAGACGCA, the “PBM E-score” value is reported as -0.0715. With ACCTAATA the “PBM E-score” value was 0.27. GGACATGA was tested, and the “PBM E-score” value was -0.0513. For ATCCTAAA, the “PBM E-score” value was -0.0826. In the case of ACAACTAA, the “PBM E-score” value is reported as 0.259. GCAAGTCA was tested, and the “PBM E-score” value was -0.00498. In the case of ACTGACAA, the “PBM E-score” value is reported as 0.113. For GTGCTTAA, the “PBM E-score” value was 0.0338. For CCAGAAGG, the “PBM E-score” value was -0.0896. For ACATTTTC, the “PBM E-score” value was 0.209. GACCTCCC was tested, and the “PBM E-score” value was -0.4. TAGGATAA was tested, and the “PBM E-score” value was -0.00402. With CGCTAACC the “PBM E-score” value was -0.0866. For ATCGTCAC, the “PBM E-score” value was 0.401. TCGGGGCA was tested, and the “PBM E-score” value was -0.302. For TCATCGGA, the “PBM E-score” value was 0.217. CCACAGCC was tested, and the “PBM E-score” value was -0.308. In the case of CCCAGTCC, the “PBM E-score” value is reported as -0.225. In the case of CCCACTGA, the “PBM E-score” value is reported as -0.0689. CACAAAGG was tested, and the “PBM E-score” value was 0.13. In the case of AGCAGACA, the “PBM E-score” value is reported as -0.165. In the case of ACGGACAT, the “PBM E-score” value is reported as 0.0181. With AATTCAAA the “PBM E-score” value was 0.23. In the case of ACCAAGGG, the “PBM E-score” value is reported as -0.135. For GGGTGTAA, the “PBM E-score” value was -0.0577. With AGGGTGCC the “PBM E-score” value was -0.241. In the case of GGTCGCGA, the “PBM E-score” value is reported as -0.0477. In the case of ATAGTCAA, the “PBM E-score” value is reported as -0.0182. For GTGACATA, the “PBM E-score” value was 0.471. With CTCCAGAG the “PBM E-score” value was -0.209. In the case of CCTCCTAG, the “PBM E-score” value is reported as -0.121. AGGACTGG was tested, and the “PBM E-score” value was -0.203. AAGCCAGA was tested, and the “PBM E-score” value was -0.114. In the case of AACCTAAT, the “PBM E-score” value is reported as -0.0438. With ACTACCGA the “PBM E-score” value was -0.235. ATTCCGCG was tested, and the “PBM E-score” value was 0.129. In the case of AATATGAA, the “PBM E-score” value is reported as 0.241. With CTGCCTGA the “PBM E-score” value was 0.135. CAGCTCGG was tested, and the “PBM E-score” value was -0.118. With ACACGAAT the “PBM E-score” value was 0.118. For GTATCGGA, the “PBM E-score” value was -0.137. GGACGCAC was tested, and the “PBM E-score” value was -0.236.
